Measurements: ChEMBL document CHEMBL4888484, “Replenishing the malaria drug discovery pipeline: Screening and hit evaluation of the MMV Hit Generation Library 1 (HGL1) against asexual blood stage Plasmodium falciparum ,using a nano luciferase reporter read-out” (2022)
Hit rate of the full screen: of about 150,000 compounds, about 540 (0.36%) showed an effect of 50% or more. Some of the results follow.

Tested on: Plasmodium falciparum
Assay: Primary screen in NF54 nanoGlo assay, in single point, at 2uM, 72h; a lower Z score goes with more inhibition
Format: functional, Erythrocyte
Details: timepoint 72 hour

Row | SMILES | % Inhibition [%] | Z score
1 | CN1CCC(N2CCN(c3ncccc3Cl)C[C@@H](O)C2)CC1 | -8 | 1.51
2 | COc1cc2c(cc1OC)CC(=O)N(CCC(=O)Nc1nccs1)C=C2 | -13 | 1.62
3 | O=C(c1cnccn1)N1CCc2[nH]c(-c3ccccc3)nc2C1 | 0 | 0.06
4 | COc1ccc(C(=O)N[C@H]2CC[C@@H]3CCC[C@@H]32)o1 | 3 | -0.39
5 | CC(C)n1cc(S(=O)(=O)Nc2cc(F)ccc2Cl)c2cccnc21 | 22 | -2
6 | O=C(NCC1CCC2(CC1)OCCO2)C1CC=CC1 | 1 | -0.18
7 | CNC(=O)[C@@H]1C[C@H](N)CN1C(=O)c1cc(C)sc1NC(=O)C(C)(C)C | -1 | 0.12
8 | Cc1cc(C)cc(C(=O)N/C(=N\c2ccc3c(c2)OCCO3)NCCc2c(C)nn(C)c2C)c1 | 4 | -0.83
9 | C[C@@H](c1cccs1)N(C)CCN1CCOC1=O | -10 | 1.05
10 | Fc1cc(CCNCc2cccs2)c2c(c1)COCO2 | -17 | 2.19
11 | O=C(Nc1nc(C2CCOCC2)cs1)NC1CC1C1CCCCC1 (configuration not stated) | -3 | 0.43
12 | O=C1NCCN(C(=O)c2ccnn2CC(F)F)c2ccccc21 | -3 | 0.58
13 | Cc1cc(COc2nccc(C(F)(F)F)n2)nc(C)n1 | 2 | -0.3
14 | O=C(COc1ccccc1)N1C[C@@H]2[C@@H]3CC[C@@H](C3)[C@@H]2C1 | -8 | 1.17
15 | CCCCN(CCCC)C[C@H](O)COCc1cccc(OC)c1 | -12 | 1.63
16 | Cc1nn(C)cc1NC(=O)[C@@H]1CCCCCN1C | -10 | 1.85
17 | O=C1C(=O)N(CN2CCN(Cc3ccccc3F)CC2)c2ccccc21 | -25 | 2.92
18 | CCOc1ccc(S(=O)(=O)N2CCC(N3C(=O)CNC3=O)CC2)cc1F | -2 | 0.38
19 | O=C(c1ccc[nH]1)N1CCN(Cc2ccncc2)[C@@H]2CS(=O)(=O)C[C@@H]21 | -5 | 0.94
20 | CCN1CCC(NC(=O)c2cccc3ccccc23)CC1 | -13 | 1.6
21 | COc1cc(C(=O)Nc2nc(C)nn2C)ccc1Cl | -9 | 1.22
22 | COc1ccc(N2C[C@@H](NC(=O)NCc3ccc4[nH]c5c(c4c3)CCCC5)CC2=O)cc1OC | 13 | -1.68

Row | SMILES | % Inhibition [%] | Z score
23 | COc1cc(C(=O)NC[C@H]2CCCO2)c(N(C)S(C)(=O)=O)cc1OC | 7 | -1.04
24 | CCOC(=O)N1CCN(C(=O)COc2ccc(C)cn2)CC1 | -9 | 1.13
25 | CCOc1cccc2[nH]cc(CC(=O)N[C@H](c3nccn3C)C3CC3)c12 | 7 | -0.9
26 | CC(C)Oc1ccc(C(=O)NCCn2ccn3nc(-c4cccs4)cc23)cc1 | 2 | -0.28
27 | COCCCNC(=O)CN(C)c1cc(Cl)ccc1C#N | -6 | 0.76
28 | Cc1ccc(NC(=O)NCCn2nnc3cc(S(=O)(=O)NC(C)C)ccc32)c(C)c1 | -23 | 2.3
29 | CCCCOc1ccc(-c2cc3c(N4CCN(Cc5ccc6c(c5)OCO6)CC4)nccn3n2)cc1 | 3 | -0.49
30 | CS(=O)(=O)N1CCCCC[C@H]1c1noc(-c2ccccc2)n1 | 5 | -0.62
31 | C[C@@H](CN(C)C(=O)c1nc(=O)[nH][nH]1)Oc1ccc(Cl)c(Cl)c1 | -2 | 0.19
32 | CCc1[nH]nc(NCc2cc(Cl)cc(Cl)c2OC)c1C | -8 | 1.42
33 | COc1cccc(C(=O)N2CCC([C@]3(CCC(C)C)NC(=O)N(CCN(C)C)C3=O)CC2)c1OC | -8 | 1.37
34 | CN(CCc1cn[nH]c1)c1nc2nonc2nc1N1CCCCCC1 | -7 | 0.65
35 | C[C@@H]1CN(CCN(C)S(=O)(=O)c2cccnc2)C[C@H](C)O1 | -24 | 2.77
36 | COc1cccn(CC(=O)N2CCC(c3nc4ccccc4o3)CC2)c1=O | -8 | 0.88
37 | Cn1nc(CNC(=O)c2ccc(Cl)s2)c2c1CCCC2 | -11 | 2.29
38 | O=C(c1ccc2ccccc2n1)N1CCC2(CC1)C[C@@H](N1CCOCC1)CCO2 | -6 | 0.75
39 | COc1ccc2c(c1)c1cnn(Cc3cccc(C(F)(F)F)c3)c(=O)c1n2C | 2 | -0.22
40 | FC(F)(F)[C@@H]1CCC[C@H](C(F)(F)F)N1 | 0 | -0.05
41 | O=C(c1ccc(Cl)s1)N1CC[C@H](c2ccc3c(c2)CCO3)C1 | 7 | -0.87
42 | O=C(NCc1ccc([C@@H](O)c2ccsc2)s1)c1cccc(Cl)c1 | -12 | 1.49
43 | CC(C)CN1CCCN(C(=O)C2CC=CC2)CC1 | 15 | -2.01
44 | CC(C)CCN(CC1CN(CC(O)COC(C)C)CCO1)C(=O)c1ccccc1 (configuration not stated) | -12 | 1.63

Row | SMILES | % Inhibition [%] | Z score
45 | CS(=O)(=O)CC1(Cn2ccc(C(F)(F)F)n2)CC1 | -10 | 1.17
46 | CCc1nn(C)c(CC)c1CC(=O)NS(=O)(=O)CC1CCCC1 | -2 | 0.26
47 | COC(=O)NCc1ccc(CNC(=O)OC)cc1 | -7 | 0.82
48 | CCOc1nc2cc(C(=O)OCC[C@H]3CCCCN3C(=O)c3cccn3C)ccc2[nH]1 | -3 | 0.46
49 | O=c1c(C(F)(F)F)nc2ccc(C(F)(F)F)cc2n1CC[C@H]1CCCO1 | -12 | 1.98
50 | CC(C)n1ccnc1CNC(C1CCCC1)C1CCCC1 | -14 | 1.21
51 | CCN(CC)CCNC(=O)c1cnn(-c2ncc3c(n2)-c2ccccc2CCC3)c1COC | 14 | -1.89
52 | FC(F)(F)c1ccc([C@@H]2CCCCCN2)cc1 | 3 | -0.57
53 | Cc1nc(CC(=O)N2CC(Oc3ccccc3Cl)C2)cs1 | -6 | 0.89
54 | Cc1noc(CNC(=O)Cc2csc(Nc3ncccn3)n2)n1 | 1 | -0.16
55 | C[C@H]1CN(C(=O)NCc2ccccc2F)CC(=O)N1 | -4 | 0.57
56 | CCN(CC)CCCNC(=O)CCc1cc2c(n1-c1ccc(C)cc1F)-c1ccccc1OC2 | -4 | 0.74
57 | COCCN(CC(F)(F)F)C(=O)[C@@H]1Cc2cccc(F)c2O1 | -12 | 1.23
58 | Cc1n[nH]c(C)c1CNC(=O)N(C)Cc1ccsc1 | -1 | 0.13
59 | Cc1ncc(C(=O)N2CC[C@](C)(O)[C@H](C)C2)cn1 | 1 | -0.13
60 | Cc1cc(C)nc(N(C)CC(=O)NC(C)(C)C)n1 | -10 | 1.43
61 | CCCCNCCOc1ccc(OC)cc1 | 10 | -1.32
62 | Nc1nnc(C2CCN(C(=O)Nc3ccc(Cl)cc3)CC2)o1 | 8 | -0.99
63 | COc1cc2ccncc2cc1OCCOc1ccccc1 | 2 | -0.24
64 | O=C(c1cccc(Cl)c1)N(CC(F)(F)F)C1CCOCC1 | 1 | -0.14
65 | CC[C@H](C)n1nnc2cc(S(=O)(=O)N3CCC(C(=O)Nc4ccc(C)cc4)CC3)ccc21 | -17 | 2.37
66 | NC(=O)c1csc(N2CCC(CO)(C[C@H]3CCCCO3)CC2)n1 | -9 | 1.24

Row | SMILES | % Inhibition [%] | Z score
67 | CC(=O)N[C@@H](Cc1ccccc1)c1nnc(N2CCCCCC2)o1 | 6 | -0.71
68 | O=c1[nH]c2ccsc2c(=O)n1CCc1ccccc1 | 33 | -4.74
69 | Cn1cnn(CC(=O)Nc2nc3ccccc3[nH]2)c1=O | -6 | 0.88
70 | CCC(=O)c1ccc(OCCNC)cc1 | -10 | 1.37
71 | Cn1c(CCNC(=O)C2CC2C2CCC2)nc2ccc(F)cc21 (configuration not stated) | 27 | -3.09
72 | CC(C)c1noc(Cn2cc([C@H](O)c3ccccc3)cn2)n1 | -7 | 0.91
73 | Cn1ccnc1COC(=O)c1cccc(Nc2cnccn2)c1 | -12 | 2.05
74 | CCC(Oc1ccc2c(c1)C(c1ccccc1)N(C(=O)CC(C)C)CC2)C(=O)N1CCOCC1 (configuration not stated) | -13 | 1.25
75 | COCCc1noc(C2CN(S(=O)(=O)c3cccc(F)c3)C2)n1 | -12 | 1.55
76 | Cc1ccc([C@H](C)N(C)Cc2noc(-c3cccs3)n2)s1 | -12 | 1.56
77 | C[C@@H](CC(=O)NC(C)(C)CO)Cc1ccc(Cl)cc1 | -14 | 1.58
78 | CCn1cc(S(=O)(=O)NCCc2ncc(C)n2C2CC2)cn1 | -10 | 1.78
79 | CN(C)C[C@@H](O)CNC1CCC(C(F)(F)F)CC1 (some centres not stated) | -3 | 0.35
80 | Cc1noc(COC(=O)c2cnn(-c3ccc(F)cc3F)c2)n1 | -9 | 1.41
81 | CC(C)(C)CC(C)(C)NC(=O)c1ccc(C#N)cc1 | -6 | 0.66
82 | COc1cc(F)c([C@H](C)NCc2cnc(C3OCCO3)s2)cc1OC | -3 | 0.34
83 | O=C(NC1CCCC1)c1cc2ccccc2o1 | -11 | 2.11
84 | Cc1nnc(NC(=O)[C@H](Oc2cccc(Br)c2)c2ccccc2)s1 | 2 | -0.48
85 | Cc1cc(C)c(NS(=O)(=O)c2ccc3c(c2)-c2oncc2CO3)c(C)c1 | -7 | 1.28
86 | Cc1cc(=O)n(CCN(Cc2cocn2)Cc2cocn2)c(=O)[nH]1 | 2 | -0.35
